Measurements: PubChem BioAssay AID624171 (National Center for Advancing Translational Sciences (NCATS), 2012)
Hit rate of the full screen: of about 410,000 compounds, about 1,200 (0.29%) were called active. The inconclusive results got no clear call from the source; some entries with a clear call stand among them for comparison. The call rests on the fitted dose curve; in most records, active means well fitted activation curve with a large enough effect; inconclusive means small, poorly fitted or top-dose-only effect; inactive means flat fitted curve, though single readings scatter. Potencies of inconclusive entries are doubtful fits and often do not repeat.

Test: qHTS of Nrf2 Activators; further: nearly all actives have a fitted effect of over 65% in size; on activation: % of control where 0% means no effect
Conditions: AREc32 ARE-luciferase reporter (MCF7-derived line), luminescence, 24 h; activation: at 46.1 µM (top of the series)
How it was run: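 Luminescent ARE reporter assay in AREc32_Fluc cells: overnight plating at 37 deg C, 24 hr compound incubation, Steady-Glo added, 30 min RT before reading.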
Potency means the concentration at half of the fitted maximal effect; tags describe the fitted curve by direction and shape.

SMILES	Potency	activation
CCOC(=O)N/N=C\C=C\c1ccco1	inconclusive: 3.16 µM [activator, partial curve, poor fit]	–
CCOc1ccc(-c2cc(C(=O)N3CCN(c4ccc(C)cc4)C(C)C3)c3ccccc3n2)cc1 (stereo not drawn)	–	inactive: 5.03%
CCN(CC)CCC(=O)N1c2ccccc2Sc2ccc(Cl)cc21	inconclusive: 15.8 µM [activator, partial curve, poor fit]	–
COc1ccc(NC(=S)NC(NC(=O)CCl)C(Cl)(Cl)Cl)c([N+](=O)[O-])c1 (stereo not drawn)	inconclusive: 22.4 µM [activator, single point]	–
COc1cc([N+](=O)[O-])c2nc(C(=O)O)ccc2c1	inconclusive: 20 µM [activator, partial curve, poor fit]	–
O=C(c1cc(Br)c(Br)s1)N1CCc2ccccc2C1	inconclusive: 17.8 µM [activator, single point]	–
COc1cccc(OC)c1OCc1cc(C2C3CCCC=C3C(C#N)=C(N)C2(C#N)C#N)c(C)cc1C (stereo not drawn)	inconclusive: 25.1 µM [activator, single point]	–
Cc1ccc(C)c(NC(=O)CSc2ccc(-c3ccco3)nn2)c1	inconclusive: 11.2 µM [activator, partial curve, poor fit]	–
CCOC(=O)c1cccc(NC(=O)c2cnc(N3CCCCC3)c3ccccc23)c1	–	inactive: -0.242%
Cc1cc(O)c(C(=O)/C=C/c2ccccc2Br)c(=O)o1	inconclusive: 10 µM [activator, partial curve, poor fit]	–
O=C(COC(=O)CNC(=O)c1ccc([N+](=O)[O-])o1)Nc1ncc(C(F)(F)F)cc1Cl	inconclusive: 22.4 µM [activator, single point]	–
CC(C)(C)c1nc(SCC(=O)NCc2ccco2)c2ccccc2n1	inconclusive: 35.5 µM [activator, single point]	–
O=C(NCC1CCCO1)c1cc(-c2ccccc2)on1 (stereo not drawn)	inconclusive: 11.2 µM [activator, single point]	–
CCOc1ccc(Nc2cc(C)nc3ccc(C)cc23)cc1	–	inactive: 6.96%
N#CC1=C(N)C(C#N)(C#N)C(c2ccncc2)C2CN(C(=O)OCc3ccccc3)CC=C12 (stereo not drawn)	inconclusive: 35.5 µM [activator, partial curve, poor fit]	–
COc1ccc(-c2cc3c(=O)n(CC(=O)Nc4cc(C)ccc4C)ccn3n2)cc1	–	inactive: -1.34%
NC(=O)C(=O)N/N=C/c1c(F)c(F)c(F)c(F)c1F	inconclusive: 15.8 µM [activator, single point]	–
O=c1oc(-c2ccccc2)nc2sc3c(c12)CCCC3	inconclusive: 12.6 µM [activator, partial curve]	–
COc1cccc(/C=C/c2ccccn2)c1O	active: 8.91 µM	–
O=C(/C=C/c1ccco1)NCC1COc2ccccc2O1 (stereo not drawn)	inconclusive: 17.8 µM [activator, partial curve, poor fit]	–
O=C(c1cnn(-c2ccc(Cl)cc2)c1)c1ccccc1O	inconclusive: 11.2 µM [activator, partial curve, poor fit]	–
CC(C)Cn1c(C(C)C)nc([N+](=O)[O-])c1Sc1ccc(Cl)cn1	inconclusive: 28.2 µM [activator, single point]	–
O=C(CN1CCCCC1)N/N=C/c1cccc(C(F)(F)F)c1	inconclusive: 15.8 µM [activator, partial curve, poor fit]	–

SMILES	Potency	activation
Cn1nnnc1SCC(=O)Nc1ccccn1	inconclusive: 12.6 µM [activator, single point]	–
COC(=O)c1c(-c2cccs2)csc1NC(=O)COc1ccccc1	–	inactive: 4.39%
Cc1cccc2cc(C#N)c(SCCN3CCCCC3)nc12	inconclusive: 20 µM [activator, single point]	–
C[N+](C)(C)c1ccc(/C=N/Nc2nc(Cl)c(C#N)c(Cl)c2Cl)cc1	inconclusive: 15.8 µM [activator, partial curve, poor fit]	–
COc1ccc(Cl)cc1S(=O)(=O)n1ccnc1	–	inactive: -0.0348%
CCCCN=C1N/C(=C\c2ccco2)C(=O)N1c1ccccc1	inconclusive: 12.6 µM [activator, single point]	–
O=C(CSc1nncn1-c1cccnc1)Nc1ccccc1[N+](=O)[O-]	inconclusive: 12.6 µM [activator, partial curve, poor fit]	–
COc1ccc(CCN(C)C(=O)c2cc(=O)c3ccccc3o2)cc1OC	inconclusive: 5.01 µM [activator, full curve]	–
COc1cc(-c2cc(C(=O)Nc3ccccc3N3CCOCC3)c3ccccc3n2)cc(OC)c1OC	–	inactive: 7.15%
CCOc1ccc2nc(NC(=O)c3ccccn3)sc2c1	–	inactive: 5.97%
O=C(CN(c1cccc(C(F)(F)F)c1)S(=O)(=O)c1ccccc1)Nc1cccc(Cl)c1	–	inactive: 4.73%
CC(C)N=c1scc(-c2ccco2)n1/N=C/c1ccc(O)c(O)c1	inconclusive: 3.98 µM [activator, single point]	–
CCOC(=O)C(=CNc1ccc(O)c(C(=O)OC)c1)C(=O)OCC	inconclusive: 11.2 µM [activator, partial curve, poor fit]	–
C/C(=N\Nc1ccccc1[N+](=O)[O-])c1ccccc1O	inconclusive: 3.55 µM [activator, full curve]	–
Cc1cc(NC(=O)CN2CCC(O)CC2)nc2c1c(=O)oc1ccccc12	inconclusive: 8.91 µM [activator, partial curve]	–
CCOC(=O)c1cc(CC)sc1NC(=O)COc1ccccc1C	–	inactive: -0.827%
O=C(COC(=O)c1ccco1)Nc1ccccc1[N+](=O)[O-]	inconclusive: 15.8 µM [activator, single point]	–
Cn1c(N=Nc2ccc(N3CCOCC3)cc2)[n+](C)c2ccccc21	inconclusive: 31.6 µM [activator, single point]	–
CS(=O)(=O)N1CCN(c2ccccc2NC(=O)c2ccc([N+](=O)[O-])o2)CC1	active: 8.91 µM	–
CC(C)NC(=O)C1(C#N)C=C1c1ccccc1 (stereo not drawn)	inconclusive: 28.2 µM [activator, single point]	–
CC(=O)Nc1ccc(C(=O)N2CCCc3ccccc32)cc1	–	inactive: -0.702%
O=C(CSc1nc(C2CC2)nc2ccccc12)Nc1ccccc1N1CCOCC1	inconclusive: 31.6 µM [activator, partial curve, poor fit]	–
COCCCn1c(=O)/c(=C\c2ccccc2OC(F)F)s/c1=C(/C#N)C(N)=O	inconclusive: 20 µM [activator, partial curve, poor fit]	–

SMILES	Potency	activation
O=C(Nc1nnc(-c2cccs2)s1)C1CC1	inconclusive: 2.82 µM [activator, full curve, poor fit]	–
O=C(Nc1cccc([N+](=O)[O-])c1)N1CCCc2ccccc21	inconclusive: 25.1 µM [activator, single point]	–
COc1cc(C2CC(=O)N(CC(=O)Nc3ccccc3F)c3ccccc3S2)cc(OC)c1OC (stereo not drawn)	–	inactive: -0.86%
CCCCCOc1ccc(NC(=O)CSc2cccc3cccnc23)cc1	inconclusive: 31.6 µM [activator, single point]	–
O=C(Nc1nc2ccccc2n1Cc1ccccc1)c1ccc(COc2ccccc2[N+](=O)[O-])o1	inconclusive: 5.62 µM [activator, full curve, poor fit]	–
O=c1[nH]c(Sc2ccc([N+](=O)[O-])cc2[N+](=O)[O-])nc2ccccc12	inconclusive: 12.6 µM [activator, single point]	–
Cc1nc2ccccn2c1C(=O)/C=C/c1cccc([N+](=O)[O-])c1	inconclusive: 12.6 µM [activator, partial curve, poor fit]	–
CCC(Oc1ccccc1)C(=O)Nc1ccccn1 (stereo not drawn)	inconclusive: 35.5 µM [activator, single point]	–
Cc1cc(C)c2c3c(sc2n1)C(c1ccccc1)C(C#N)=C(N)O3 (stereo not drawn)	inconclusive: 11.2 µM [activator, partial curve, poor fit]	–
O=C(N/N=C/C=C/c1ccco1)c1cccc([N+](=O)[O-])c1	active: 2.24 µM	–
CSc1cccc(NC(=O)CC(c2ccc(F)cc2)N2Cc3ccccc3C2=O)c1 (stereo not drawn)	–	inactive: -0.384%
O=C(/C=C/c1ccc(F)cc1)NC(=S)NNC(=O)c1cnccn1	–	inactive: -1.03%
Cc1sc2ncnc(Sc3nnnn3-c3ccccc3)c2c1C	active: 8.91 µM	–
O=c1ccc2ccccc2c2ccccc12	inconclusive: 3.16 µM [activator, single point]	–
O=C(/C=C/c1ccco1)NC1=NCCS1	inconclusive: 12.6 µM [activator, partial curve, poor fit]	–
O=C1C=CC(=NN=C(c2ccccc2)c2ccccc2)C=C1	–	inactive: 6.89%
Cc1cc(NC(=O)c2ccco2)cc(-c2nc3cc(Cl)ccc3o2)c1O	inconclusive: 0.891 µM [activator, full curve, poor fit]	–
Cc1ccc2c(NC(=S)NC(=O)c3ccccc3)cccc2n1	inconclusive: 2.51 µM [activator, full curve, poor fit]	–
O=C(/C=C/c1ccc([N+](=O)[O-])s1)N1CCN(c2ccccc2)CC1	inconclusive: 7.08 µM [activator, partial curve]	–
O=C(/C=C/c1ccc([N+](=O)[O-])cc1)OCC(=O)N1CCCC1	inconclusive: 22.4 µM [activator, single point]	–
CC1CCC/C(=C\c2ccc(O)cc2)C1=O (stereo not drawn)	inconclusive: 22.4 µM [activator, single point]	–
COC(=O)C1=C(C)N(Cc2ccc(C)cc2)C(=O)/C1=C\c1cc(OC)c(OC)c(OC)c1	inconclusive: 22.4 µM [activator, single point]	–
